The RNAGym collection of RNA variant scans (doi:10.1101/gad.245936.114)
Variants at the floor of the assay are shown more often than the library holds them.

B1: tRNA (parent)
chain: CUCUCGGUAGCCAAGUUGGUUUAAGGCGCAAGACUUUAAUUUAUCACUACGAAAUCUUGAGAUCGGGCGUUCGACUCGCCCCCGGGAGAUUUUUUCCUCGAGCAA

Variants of: B1
Experiment: nonsense suppression (GFP-seq) (ratio to wild type); higher = more function; SUP4oc tRNA, yeast GFP reporter sort-seq
How it was run: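 Yeast carrying genome-integrated SUP4oc tRNA variants from a library with ~3% random mutations were grown in raffinose/galactose medium with 80 mg/L adenine. Each strain also carried a galactose-driven GFP ochre reporter and RFP. Cells were sorted into GFP/RFP bins, and each bin was Illumina-sequenced (phred ≥30). Nonsense suppression (GFPSEQ) is the bin median GFP/RFP, weighted by each variant's estimated cell share per bin, relative to wild-type SUP4oc; variants needed ≥100 reads and ≥30 cells.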

Nonsense suppression, ≤ 0.026:
G19C A33C A60C G67A G88A
G18C G32C G59A U71A
G19A A54C C79G
G18C G26U
G19C C27A U70A U76G
G18A A33G C80U G86C
G19C U71G C75G U76G C80U
G19U A24C G26A G65C
G18C C56G U57G C72U
G18U G32C
G18C A23U G26U C34A U55C
G18C G67A G78A A87C
G18U G19U G66C G78U C79G
G19A U35G U76C
G18U U55C G59A
G19A C83U A89C
G18U A31G G67A C81A A87G
G18U U20A A60C
G19C A54C A62U
G18U A24G U63G G88C
G18C U63G
G19A U20A A31C
G18U A24U G32C
G18A G19U U22C A60U G66U
G18C U21C C79U
G19C A74C C79G
G19C U55A A60U G69A C80A
G19C
G19A
G19U
U17G U20C G66U
G19C U55A C81U
U17G U71A
G18U U76A
G18U C27A
U17G U20A U22A C82G
G19A U20G G25C U35A
U17G G69U
G18U G69C G85C
G19A G32A
G19C A24G C27G C80U G85C
G19A U71G
G19A U71A
U17G G18U A33G G69A
G19C A31C C83A
G19A C82G
G18U U20A U58A A60U C77G G84A
U17G G85C
G18U U70G A87C
G19A C29U
G19A A33U
G18U C77U C81U
U17G G19A A30C A74U
G18C A23G C56U G66C
G18A A33C A62G C75G
G18A C75U U76G
G19A A33U C68G C79A G88U
G18U G28U U70C C81A
G19C G86C
G19C G86A
G19A U21A A33G U57C C75U
G19C U20A A24C G88C
G18U U63G C80U
G19C U71C
U17G C27U
G18A U20A A31U U57A A62U G67C
G18A C75A U76C G86A
G18C A33G C80G
G18C U63G G66U
G19C U20G C72G
G19C U58C C64A
G19C C29A
G18U G65C G88A
G18C A60C G65C
G18C C29U G86U
G18C G61A U63A
G18C G26U U55G G69U
G18U A24U G66U
U17G G66U G69A
G19A G78A A87G
G18A G61C C72U
G18U C79A
G19U A23C U58G
G18C A60U A89G
G18U G32U A33G
G19C G26A C27G U71G G73A
G18C G61A G84C
G18U U58G C68A
G19C U63A C64U U76C
G19A G66U
U17G U55G C64G U70A A74C
G19C U70A
G19A C56U G66A C68G
G18U G26A C27G U35G
G19A A60U A89G
G19C C34U
G18C C29G
G18C G19A C29U
G18A U21A A30C
G18A G28U U58A A62C A74G
G18U G28A G85C
G18U A24U A62G
G19C G67A
G18U C34A C80A G84C
G18C A60G A87U
G19C A31G C34G U70G
U17G G66U G73U
G19C A87G
G18C A23U C27A G32C A54C G65C
U17G U55C U71C
G19C G32A U35G C75A
G18A A62C U76C
G18A A54G C77G
U17G G25C C72A
G18C A89G
G18A U21G G32C U63C
G19C G28C C56G
U17G G18A U21A
G18U G59A
G19A A60U
G19C G32C U57C
U17G U21G G69C G78U
G18A C72G C79A G86A
G19C U20G C64U A89G
G18C G28C C29G
G19A A30G A62G
G19C A31G G66U
G18C G19A A24U
G18A A33G C81U
G18U U21G G25U G32U U63C G85A
G19C G25A G73C C79A
G18U G61A G85A
G18U G26U G86A G88C
G18A A33U
G18A C56A
G18U A30G A31U U57C
G18A A23G
G19A A31G G85U
G19C U35A A60G G66A G84C G88A
G19C C56U
G19C C56G
G18A U55G G78A G86A
G18A A31U U76G
G18C A24U U55C
G18A U57G A60C G67A A74U
G19A C27A A62U C79G
G18C U20A
U17G U21G A33U
G18C U63G G86A
G19A A54G G67A
U17G U22C G73C
G19A G28U G65C
G18A U55A U58A
G19A C29G A62C
G19U A24G
G19A G26U
G19U A30G
G18A C83A
G18U U63G G66U
G19C U21A C29G

Nonsense suppression, 0.799:
U17G U63C

Nonsense suppression, 0.0769:
U17G U55C

Nonsense suppression, 1.05:
U17G U21C

Nonsense suppression, 1.08:
U17G U63A C75A G85A

Nonsense suppression, 0.204:
U17G G19A

Nonsense suppression, 0.0263:
U17G U21G G61U

Nonsense suppression, 1.12:
U17G G28A
